According to paper PMC10726135:
This is one part of the list. At the low end of the ranking the order means little. The protein was read in a cell extract, so binding may be indirect.

Target: T1, HNF4alpha8 (COS-7 nuclear extract) (UniProt P41235-5)
T1 sequence: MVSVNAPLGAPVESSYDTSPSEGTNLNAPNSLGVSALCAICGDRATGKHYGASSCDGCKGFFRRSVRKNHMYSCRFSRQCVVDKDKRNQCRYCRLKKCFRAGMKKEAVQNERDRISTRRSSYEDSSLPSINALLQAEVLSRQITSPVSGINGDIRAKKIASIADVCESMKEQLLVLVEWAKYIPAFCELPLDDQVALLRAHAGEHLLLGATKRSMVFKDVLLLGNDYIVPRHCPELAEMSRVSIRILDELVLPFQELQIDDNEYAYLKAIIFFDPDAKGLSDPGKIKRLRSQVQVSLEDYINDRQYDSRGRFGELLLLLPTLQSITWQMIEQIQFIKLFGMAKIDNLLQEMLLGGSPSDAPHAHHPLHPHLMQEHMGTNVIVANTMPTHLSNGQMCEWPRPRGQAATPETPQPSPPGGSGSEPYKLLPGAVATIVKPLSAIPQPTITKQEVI
Assay: protein-binding microarray
Details: COS-7 nuclear extract on double-stranded Agilent 4x180k PBM; binding buffer, salt, pH and temperature not given; high values mean tight binding; double strand, one strand shown; sequences stand for … in …GCCTAGGGAGATTAGAGTATCGGTCGA

Sequence	binding signal (log2 normalized intensity)
CGCCCCCATTATCTCCTTAGGTACTTTTCT	0.603
GGACTCATTCTCCCCTGGAGTCTTAAATCC	0.808
TATCAGGTGGTGATGGTGGGAGGGAGGCTT	-1.26
AGGAGCCTTCCGGAGGCTCTGCTGAAGAGA	-1.4
CCCAGGTACGGAGGACAGCCACCCGTGCTT	-1.2
AAGCCCCAAATCTAGCATCAGTGAGTCAAG	0.898
AGAAAGCAAAGTCCCTGGGGACAGGGATTA	-1.24
GAGTGGACTTTGGCTTATGCAAATGTTATG	4.89
TTATCCCAAATGTTTGCACTGAGGAATGGA	0.907
CTGCAGATTCCACCTTAGAGGGACGAAGGT	-1.37
TGTGGTTATCTGTTGGGGAATCAGTCCATA	1.71
CCCCATCGCACGGCAGAACTGGTGACCGGA	2.02
AAACGATGTGAGGTCTCTGCATACCAGGTA	-1.26
GTATCTAATCTCAGATATGCTAATTAACCC	1.45
CTGCCAGGGAGACAAAGTGTCACAAACTAT	-1.34
AAGAGCCGGCCGGCGGGGTCACGTGGGGCC	3.6
AAGAGTCAAAGGGCAAAGGAATAAAATAGC	1.46
TGAGAATCTGACCTTTGGTTAACTTCTTAA	5.07
TCCACTGTGTTCTTGTTTGCTAAGTGAGAA	1.05
CAGTCTCAGTGGGCTAAACATCAAGACAGG	-1.19
CCTAATGGGGTACTTGAACCCTACTCATAA	2.63
TATGTGAGTACACACTGTAAAATTTCATGG	1.06
AGGTAATGGTCTCTCCCAGCGGGTCATTAA	1.86
AGTTTTGCAACATACTGAAAAAGGGTTGTG	1.23

Sequence	binding signal (log2 normalized intensity)
CGTAATCCCAGCTTATGTTTGCAAGTCGAG	1.13
GGGGCGCGGCCTAATGCCTGGGAAAATGTT	-0.928
GGGAGCAGTGGGCATATCTTTTTATCTCTG	-0.397
GGAATGCAGCTCAGACTGCTTCTCTGCTGG	-1.23
AACCTCAGTGTTTGCTCCTAAGGCCTTCAA	0.000503
AAGGAGAGGGGGCGGGGAGAGGGAAGAGTC	-1.4
AGGGGCCCACCTCCACTCTCATAAAAGAGG	-1.24
TCTTTGCCCCAGCTCGCTCAGCTGGTTGCC	-0.997
TACCTAGGAATGCTATCTAGCATGACAAGA	-1.17
AATGGAGAGGATTTTGGAATGTCGCATAGC	-1.14
ACTTCCTTCAAACCTGGGAAAACTTACGCA	-1.3
TTGAATAGCATTTTGCAGAGACGGCAAGCC	-1.33
ATGCCAAAGAAGCAAAGGTTGGCTAAAGAT	0.479
ATTACCCTATGTCCCCCGACCCGCCCGACT	5.78
AATCATCGCACCTAAGGGCACCCTTCCTGC	-1.48
AAAAGTAGATTGTTATTTACCCTACATGGC	0.365
CCAATAGACATAACTCAAACATCTGACAGA	-1.3
ACCTGACCCAGGCGAGGGTTGCTGCACCGA	-1.28
ACAGCGCCGCCACCCGGTTGGCGCCAATAC	-1.33
TCAGTTGCAGAAAAACAGGTTCTGCAACAC	0.876
GAGACTCTCTCTCCTCTCCAGCCCATCCTA	2.13
ATTTTCCCATGGTCTGTAGAAGGCGCTGTG	-0.848
GGAAGTGGCTAGAGGTCGCGAGAGAACTGA	-1.3
AGCCTCTCACAGTAGCCCAGGTCCTTTGGT	0.598

Sequence	binding signal (log2 normalized intensity)
ACCCTCAGACACACAGTCCACAGGCTATAG	-0.795
TCACTGTGAAGACGTTAGGGGGCAGCAGGG	-0.0779
GAGGAGACCTTTGGATATCATATCATCTTC	2.39
TCCATTTAGCTTCAGTCTAAATGATGGCCA	1.76
CCAAATCATGGAGGTGTGGGGAGTTCCTTC	-0.926
AAGGTTTGTTCTTATCATGCTGTCTCTGAA	0.778
GTGCCTCAACCGAGCGTCCAAGCTCTTTCC	-1.24
TTTAAAAAAATTCCTCCTTGGATTCCTAAG	-1.35
GTGTGGCAGAAAACGCAATTGCCCTACAGC	1.24
TTAACTGGACAAGGAGGCTGGGCTGCATAG	-1.16
GGAGCTGCCGCAACATTGTCCAGCAGACAC	-1.35
ATCTCAGCTCACTGTAACCTTTGCCCCCCT	9.22
TCCTAAACCCCACAGAACAAACAGTACATT	1.27
GCGCCGGGGAAGCTGTTGGGCGCCGGAACT	-1.3
TCCAGTTGTATCGCCTCCACCTGCACCATT	-0.213
AAACAAAATGCATTTCCTTATTCTTAACAA	-1.34
TGTGCTCCTGTAGAATGACCCCCTGGGCTC	4.76
AGTAGGGCGTCTCTTAGTATTACCATGTCC	0.416
AGGAATGCAGCCCTGCCACTCTTTTTTAGA	-0.981
TGTTTATCAGAGCAAAGTTCAATTTCCAAC	4.31
AGGCAAACTTTATCAAGACTGCAGCCAGGG	-1.24
ATAAACTGGAAAGGGCTTCAGAGTCGATAG	-1.32
TTGGGGCTAATGTCTCTCTGGCCGGAGGGG	-0.523
TGTGATTTGAAATTTGTCCTGGTCACACCA	1.28

Sequence	binding signal (log2 normalized intensity)
AGGGGGCCTCCTGCCCCAGGAGCAGGATAG	-1.43
TTACAAAGTGGTTGTAGCAGTTCACACTCC	0.28
ACAGGCTCAGCAAAGTCAGGTCAGTAGCCC	-1.41
AGGGAATCCTGCATTATCAGGCAAGGGTGG	-0.804
CTTGCCAAGCCTAGTTTTGATTATCACTAC	-1.29
AGGAATTCAACCAATGTGGAGCTGCTGAAC	-1.11
ATGTTAGGCTGGAAAACTGGGCTGTTATTT	0.577
CTTCGAGCCTGTGGTTTCTCTTTGTATACA	0.701
TACTGTACTTTGCTCTCAGCACACTCTGGT	2.41
GCTTATCGTCCCTTCCCTCTGTCTTCAAAA	1.04
CCCTGACCAAGGGTCATGCTGGTCTCCTTG	2.46
ACTTTGCCCCCAAGAAAAGGTTCCTATGTA	2.18
AAACATTCCTCCCTCCCTCTTCCCTCATAT	2.52
GGTTGCTGTTATCTTCATTTATAGATAAGC	-0.228
ACATCTCCCACTGTGGACTCTGAGCCTCCT	4.54
AGCATCGCTGGACTCTGCTCCTAAGGCAGG	3.26
GATCGAAAGGACATTGTCCATCACCTGGCT	-1.26
GGTCAGACATGGCTGTATGTGACATGGACA	1.57
GGTGGGGCCGGGGTGGTGGTTACCGGCAGA	-0.576
TCGGCTGCCTCTCCAAACAAATTGAGAAAG	-1.09
CCAAAGCTACACAGATAAGCCATTCGTAAC	-1.43
